{
  "source": "the supplement of paper PMC12632987",
  "binders": {"B1": {"name": "traf2_out_17_178_1722 (protein)", "chain": "TKEEYRARISELTDRLIDLAEEAAARLLALARAEGTLSPAELAALEAARRRGSANDTLALMRRAAPRLRTRAEAEALLAEFERRSRELAREIAAAYAKYE"}, "B2": {"name": "traf2_out_17_35_1758 (protein)", "chain": "KEEERKTFLEQAKRHEELAKLVKEAIEELKKNKDDKEKQKEILEKLLEELKKAGANEQSIHLVQEAIESGDLEEALKLLEEVRERHEVAAEGLRLAAERV"}, "B3": {"name": "traf2_out_9_108_2590 (protein)", "chain": "MTEEEKLEEIFEKVKELVEEALEEFDFPEDLREALEASMKQAEELYKQGEKRTAIVLLAIDLASVASELGEEVVEWVLKRLEEIDERAASAARRRVELLK"}, "B4": {"name": "traf2_out_16_104_1376 (protein)", "chain": "SAATDAAFQAIIARLEAIAERAQRLANELMKLYEKASPEEKEKISDALVEVSELRRRALAAAEAVRQAQAAGGDLAEAQATLAELEARLAEAEARVEELK"}, "B5": {"name": "traf2_out_17_162_1621 (protein)", "chain": "MSIEEKLAEFEKKLAELEKKLKELEEKLKNIKELSKEELTDLLVEASEARREAREAIVELEELAGEIPEERYAELKARFEELAEKFQRIANKFYKELEKK"}, "B6": {"name": "traf2_out_11_79_933 (protein)", "chain": "EEKRKELLEKLEEAKKKLEELIKKMEEGTISEEEREKLLEEIERLLQRAAMLALELGLSDVLVEISEAKRHVRLAYSGDLESLKKALEEVEKAIELLKKE"}, "B7": {"name": "traf2_out_14_149_1246 (protein)", "chain": "SAEAELLRKAAELDEEIAKALEEILKLLEAGKLEEALKALEKAIEEARKRGEELGVSTSMLFDMEHILELLKKDPEEALKATREAAKRARDAAEVLRSIA"}, "B8": {"name": "traf2_out_16_177_1464 (protein)", "chain": "KRSEVMDRILILSHLAKAAEYLLEGKPELAAEHLERAREEAEEAGDEEGLALIERIEALAAEDTPEARAELAELRRELTRRAGELVEEAEKLIKEEAEKE"}, "B9": {"name": "traf2_out_13_95_1214 (protein)", "chain": "SAEANAELREVAREYTDRAEAVIDALAAALAPDPEVQPDMDAIRAAFRRNGVRQAIALIRAAAARHPEHKADFDAAAAELEAIRREAGRRFAEILKRDEE"}, "B10": {"name": "traf2_out_20_3_2185 (protein)", "chain": "SELEEELEKKLEEALKLIEEAAKLADPETAKRLEELRKRLEKSRELSYEDRLVELSEIRRELLRLAEEAKAAGKDELAAVLEEAADALNKAMNLVYKIIE"}, "B11": {"name": "traf2_out_20_3_2101 (protein)", "chain": "SELEEEYERELERALALLAEAAALADPETAARLEALRARVEASRSLPPTDRLVELSAVRREVLLLAQEARAAGDAELAAVLEAAADALNRAMNLVMKIIE"}, "B12": {"name": "traf2_out_5_86_2370 (protein)", "chain": "EEERRDAAADRKTQVLIDSINKVLSLLNSKGLNADSTYEILKLFNKMLDPEKREESKEKIREILKKSGLSEEEIEEILEELEKIVDDTNAKLAAIDAELA"}, "B13": {"name": "traf2_out_12_50_977 (protein)", "chain": "SMEEEEKEENERFREEADRILDRRDELWAETGGDVEAFAAKLLEIAKESLEDAKLARSVARAKLSELLQKGEDTSVIAAAIDEIDEIEEELEEKKEKEEE"}, "B14": {"name": "traf2_out_13_95_1118 (protein)", "chain": "SREVAEKIMEIADEMEEKILEVLEKLLEIAKKKGIAEEEIQKILDLAKHGTSNEVIHELKELSKKYPELKEEFDAAIKEIEAIRREAGRKVAEILKEEEE"}, "B15": {"name": "traf2_out_12_187_953 (protein)", "chain": "SVKEELLKAAEAAVKQALKKLEKYAAENPEVQELLKKLKELEKLLKKHPEIAADLLVAASKIIRYMDLLEEGAPQEQIDAALAAAKAALDDALAEAKKLE"}, "B16": {"name": "traf2_out_18_167_1874 (protein)", "chain": "SAELEARYQAATDALVEYSAIRRHLLLALEALRESREAALAVLEAALAEFPDSEVLREALRVARERSDEELRAFLEEKAEELQRKANERYKELEALRKEL"}, "B17": {"name": "traf2_out_1_27_1004 (protein)", "chain": "STEEERELLRRANREIGRASPEERVEVIVRALEEALARGLESPEHIAVVLILSLGEEEERRRAIEAAEEVLRAAGVSEEAIERMRRRVESGWARLDKLLA"}, "B18": {"name": "traf2_out_17_162_1652 (protein)", "chain": "SELEEKKKELEERLKELRERTEELRKKLEKIEEYSKEELSDLMVEASEVKREALEALQEIDELEPLLDPEEAKKWKEELERIIEEAQRIANAFYKQYEAK"}, "B19": {"name": "traf2_out_17_178_1668 (protein)", "chain": "DKEEYRKKISEYTDKLIDLTEETGRRLLALAEAEGRLSPEELALLRAAIRSGSANTLLAVAERLAPKLSSAAEAQALLDAFRKEKKELSKKIAEAYKKYE"}},
  "note": "Whole data set: some 1,800 sequences, median “median log2 fold change of GCK-ALFA target abundance (FLAG IP / Myc IP barcode read proportion)” near 0.14, cut for the lowest 2% near -0.84. This is one part of the list.",
  "data": [
    {"molecular_target": "T1, TRAF2, Q12933", "T1 chain": "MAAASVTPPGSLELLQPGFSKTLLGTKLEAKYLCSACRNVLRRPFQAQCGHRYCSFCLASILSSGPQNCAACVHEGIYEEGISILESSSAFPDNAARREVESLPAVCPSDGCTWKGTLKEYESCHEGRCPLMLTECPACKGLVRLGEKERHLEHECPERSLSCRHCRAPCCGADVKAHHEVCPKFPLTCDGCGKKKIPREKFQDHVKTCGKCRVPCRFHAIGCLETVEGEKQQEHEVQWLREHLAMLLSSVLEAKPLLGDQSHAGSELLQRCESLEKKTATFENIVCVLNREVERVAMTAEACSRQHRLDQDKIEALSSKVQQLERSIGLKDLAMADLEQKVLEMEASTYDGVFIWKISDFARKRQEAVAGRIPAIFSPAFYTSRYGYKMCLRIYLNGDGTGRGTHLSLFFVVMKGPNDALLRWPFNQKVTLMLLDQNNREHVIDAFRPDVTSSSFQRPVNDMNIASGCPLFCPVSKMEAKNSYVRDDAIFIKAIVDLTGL", "assay": "median log2 fold change of GCK-ALFA target abundance (FLAG IP / Myc IP barcode read proportion) (log2 ratio); each designed protein is fused to an ALFA-tag nanobody in HEK293 cells to bring the named protein to FLAG-tagged glucokinase (GCK); Myc marks an untargeted standard; higher = target protein stabilised (more abundant)", "settings": "target protein: 3xFLAG-MCP-GCK-ALFA reporter; HEK293 landing pad (RPLP)", "outline": "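The readout is target abundance, the per-binder median log2 ratio of FLAG to Myc barcode read proportions. It came from HEK293 landing-pad cells carrying a recombined ALFA-nanobody-fused binder library, induced with 2 μg mL^−1 doxycycline and transfected with a plasmid for a FLAG-tagged target and a Myc-tagged standard. After 48 h, lysates were immunoprecipitated with anti-FLAG and anti-Myc, and circular RNA barcodes were reverse transcribed, amplified and sequenced. Each barcode needed a proportion of at least 10^−7 in both replicates and each binder at least 3 barcodes per replicate, a pseudocount of 10^−6 was added, and the replicates were pooled.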", "values": [
      {"binder": "B1", "median log2 fold change": -0.153},
      {"binder": "B2", "median log2 fold change": 0.0114},
      {"binder": "B3", "median log2 fold change": 0.0837},
      {"binder": "B4", "median log2 fold change": 0.417},
      {"binder": "B5", "median log2 fold change": 0.244},
      {"binder": "B6", "median log2 fold change": -0.0578},
      {"binder": "B7", "median log2 fold change": 0.112},
      {"binder": "B8", "median log2 fold change": 0.0924},
      {"binder": "B9", "median log2 fold change": -0.892},
      {"binder": "B10", "median log2 fold change": 0.269},
      {"binder": "B11", "median log2 fold change": -0.246},
      {"binder": "B12", "median log2 fold change": -0.0117},
      {"binder": "B13", "median log2 fold change": 0.152},
      {"binder": "B14", "median log2 fold change": 0.201},
      {"binder": "B15", "median log2 fold change": 0.409},
      {"binder": "B16", "median log2 fold change": 0.259},
      {"binder": "B17", "median log2 fold change": 0.0667},
      {"binder": "B18", "median log2 fold change": 0.392},
      {"binder": "B19", "median log2 fold change": 0.0161}
    ]}
  ]
}
